Test results from PubChem BioAssay AID624417 (National Center for Advancing Translational Sciences (NCATS), 2012).
The whole screen tested about 410,000 compounds, of which about 6,400 (1.6%) were called active. Inconclusive means that the source gave no clear call. Such entries were picked first, then a sample of the others. Calls follow the shape of the dose curve; as a rule, active = well fitted inhibition curve with a large enough effect; inconclusive = small, poorly fitted or top-dose-only effect; inactive = no such curve, though single readings can be large or run the other way. Potencies of inconclusive entries are left out as doubtful fits.

These compounds were tested against Glucagon-like peptide 1 receptor (Homo sapiens) (UniProt P43220) (assay: qHTS of GLP-1 Receptor Inverse Agonists (Inhibition Mode)). Conditions: HEK293 GLP-1R CRE-luciferase, luminescence, 24 h, GLP-1R form is constitutively active; activity change, negative = inhibition: at 38.3 µM (top of the series) unless noted.
Sequence of UniProt P43220 (P43220 whole entry, looked up): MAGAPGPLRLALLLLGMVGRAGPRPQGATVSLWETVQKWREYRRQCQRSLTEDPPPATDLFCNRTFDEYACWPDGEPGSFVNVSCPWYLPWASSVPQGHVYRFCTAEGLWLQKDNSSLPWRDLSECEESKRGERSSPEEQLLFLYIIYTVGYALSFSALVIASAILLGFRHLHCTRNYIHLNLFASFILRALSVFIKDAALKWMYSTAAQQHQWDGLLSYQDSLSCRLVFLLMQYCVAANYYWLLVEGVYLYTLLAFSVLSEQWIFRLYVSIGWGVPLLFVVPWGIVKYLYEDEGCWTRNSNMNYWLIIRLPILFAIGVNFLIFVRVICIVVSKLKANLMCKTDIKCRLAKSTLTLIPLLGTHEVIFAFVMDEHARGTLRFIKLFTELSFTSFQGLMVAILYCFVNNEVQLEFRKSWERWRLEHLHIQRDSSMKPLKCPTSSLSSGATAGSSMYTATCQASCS
Summary of the method: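 Assay principle: reduced luminescence from a cAMP-responsive reporter in HEK293 cells co-expressing a constitutively active GLP-1R. Conditions: 24 hr compound incubation, 37 deg C, 5% CO2.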
% is scaled to controls: 0 for no effect and ±100 for the full control effect; potency is read from the fitted curve at half-maximal effect; tags tell the direction and shape of the fitted curve.
Also: nearly all actives have a fitted effect of over 55% in size.

SMILES	Potency	activity change, negative = inhibition
Cn1cccc1C1CCCN1CC(=O)Nc1c(Cl)cc(Cl)cc1Cl (centres undefined)	inconclusive [inhibitor, single point]	
CCOc1ccc(Cl)cc1-c1cc(C(=O)Nc2ccc(F)cc2)[nH]n1	inconclusive [inhibitor, partial curve, poor fit]	
N#Cc1cccc(NC(=O)COC(=O)c2ccccc2C(=O)c2ccc(Cl)c([N+](=O)[O-])c2)c1	inconclusive [inhibitor, single point]	
COc1ccccc1C=C(C(=O)c1ccccc1)c1ccccc1	inconclusive [inhibitor, partial curve, poor fit]	
CCOC(=O)C(=Cc1ccc2c(c1)OCO2)c1ccccc1	inconclusive [inhibitor, single point]	
COC(=O)C1=CC(C(=O)c2cccs2)=NN(c2ccc(OC)cc2)C1C(=O)OC (centres undefined)	inconclusive [inhibitor, partial curve, poor fit]	
CCCCC(=O)Nc1ccc(C(=O)Nc2cc(C(F)(F)F)ccc2Cl)cc1	inconclusive [inhibitor, full curve]	
Cc1cc(=O)n(CC=C(Cl)Cl)c2ccccc12	inconclusive [inhibitor, partial curve, poor fit]	
CC(=O)c1ccc(Oc2cc(C)nc(-n3nc(C)cc3C)n2)cc1	inconclusive [inhibitor, partial curve, poor fit]	
O=C(OCC(=O)N1CCCCCC1)c1cccs1	inconclusive [inhibitor, partial curve, poor fit]	
O=C(CN1CCC(C(=O)c2ccc(F)cc2)CC1)Nc1ccc(F)cc1	inconclusive [inhibitor, partial curve, poor fit]	
C=CCc1ccccc1OCC(O)CN1CCOCC1 (centres undefined)		inactive: -27.3%
CCOc1cc(N2CCOCC2)c(OCC)cc1NC(=O)COc1cccc2cccnc12	inconclusive [inhibitor, partial curve]	
COc1ccc(CCNC(=O)c2ccc3ccccc3n2)cc1	inconclusive [inhibitor, single point]	
CCC(=O)c1ccc(OCC(=O)OCC(=O)NC2CCCCCC2)cc1	inconclusive [inhibitor, partial curve, poor fit]	
CC(Nc1cc(N2CCNCC2)ccc1[N+](=O)[O-])c1ccccc1 (centres undefined)	inconclusive [inhibitor, single point]	
COc1cccc(Oc2ccc(C(F)(F)F)cc2NC(=O)c2cccc(F)c2)c1	inconclusive [inhibitor, full curve, poor fit]	
COc1ccc(NC(=O)c2c(NCc3ccc(C)o3)sc3c2CCC(C)C3)c(OC)c1 (centres undefined)	inconclusive [inhibitor, single point]	
O=C(NCc1nnnn1-c1ccc(Cl)cc1)c1ccc([N+](=O)[O-])o1		inactive: 12.3%
CCC(=O)N(CCC1(c2ccccc2OC)CCOC(C(C)C)C1)Cc1ccco1 (centres undefined)	inconclusive [inhibitor, partial curve, poor fit]	
CCN(CC)CCN1C(=O)c2ccccc2NC1c1ccc(N(C)C)cc1 (centres undefined)	inconclusive [inhibitor, full curve, poor fit]	
O=C(OCc1cn([C@H]2C[C@H](c3ccc(Cl)cc3)N(C(=O)c3cccs3)C[C@@H]2O)nn1)c1ccccc1	inconclusive [inhibitor, single point]	

SMILES	Potency	activity change, negative = inhibition
CCOc1cc(N2CCOCC2)c(OCC)cc1NC(=O)c1ccc(C)cc1	inconclusive [inhibitor, single point]	
O=C(c1ccc2c(c1)OCO2)C1CCCN(Cc2cn[nH]c2-c2cccc(F)c2)C1 (centres undefined)	inconclusive [inhibitor, partial curve, poor fit]	
Cc1cccc(NC(=O)C2CCN(S(=O)(=O)c3cccs3)CC2)c1		inactive: -4.89%
COc1ccc(C(=O)NCc2nnc(SCC(=O)Nc3ccccc3)n2-c2ccc(F)cc2)cc1		inactive: -18.5%
O=C(CCCOc1ccc(Cl)cc1)N1CCOCC1		inactive: -4.99%
O=C(Cn1c(=O)nc(-c2ccccc2)c2ccccc21)Nc1ccc(Cl)c(C(F)(F)F)c1		inactive: 9.07%
Cc1nn(-c2ccccc2)c(Cl)c1CN(C(=O)CCl)c1ccc(Cl)cc1	inconclusive [inhibitor, partial curve, poor fit]	
Cc1ccc(Cn2ccc(NC(=O)c3cc(CC(C)C)on3)n2)cc1	inconclusive [inhibitor, single point]	
CCN(C(=O)Cc1nc(-c2ccc(OC)cc2)no1)c1cccc(Cl)c1	inconclusive [inhibitor, partial curve]	
Cc1ccc(NC(=S)NCc2ccccc2)cc1C	inconclusive [inhibitor, single point]	
COc1ccc(C(=O)c2cn(CC(=O)Nc3ccc4c(c3)OCCO4)c3ccc(OC)cc3c2=O)cc1		inactive: 6.24%
Cc1oc2ccc(O)c(CN(C)Cc3ccccc3)c2c1C(=O)Nc1cccc(C(F)(F)F)c1	inconclusive [inhibitor, partial curve, poor fit]	
CCOc1ccc(-c2cc(C(=O)Nc3cc(OC)c(OC)c(OC)c3)[nH]n2)c(C)c1	inconclusive [inhibitor, single point]	
COc1ccc(C(=O)N/N=C/c2cccc3cccnc23)cc1	inconclusive [inhibitor, single point]	
O=C(NC(=S)N1CC=CCC1)c1ccccc1	inconclusive [inhibitor, single point]	
COc1ccc(-c2nnc(-c3cccnc3)o2)cc1OC		inactive: 30.6%
O=C(Nc1cccc(Cl)c1)NC1(C(=O)NCc2cccs2)CCCCC1	inconclusive [inhibitor, single point]	
Cc1ccc(S(=O)(=O)NNC(=S)Nc2ccc(Cl)cc2)cc1	inconclusive [inhibitor, partial curve, poor fit]	
CC12CCC(C)(c3nc4ccccc4nc31)C2(C)C	inconclusive [inhibitor, single point]	
Cc1cccc(NS(=O)(=O)c2ccc3[nH]c(=O)ccc3c2)c1C		inactive: 11.7%
CCOC(=O)c1nc(C)sc1-c1ccnn1S(=O)(=O)c1ccc(C)cc1		inactive: 46.8%
O=C(Nc1cccc(Cl)c1)NC1CC2CCC1C2 (centres undefined)	inconclusive [inhibitor, single point]	

SMILES	Potency	activity change, negative = inhibition
CCCc1cc(-c2nc(-c3ccc(Cl)cc3)cs2)ccn1	inconclusive [inhibitor, single point]	
CC(NC(=O)c1ccco1)c1nc(-c2ccc(C(C)(C)C)cc2)no1 (centres undefined)	active: 10 µM	
Cc1cccc(N=C2NN=C(c3ccccc3F)CS2)c1C	inconclusive [inhibitor, single point]	
Cc1cccc(NC(=O)c2sccc2-n2cccc2)c1C	inconclusive [inhibitor, partial curve, poor fit]	
CCc1ccc(CNC(=O)CCSCc2ccccc2F)cc1		inactive: -14%
COc1ccc([C@H]2C[C@@H](n3cc(C4CC4)nn3)[C@H](O)CN2CC2CCCCC2)cc1	inconclusive [inhibitor, single point]	
COC(=O)[C@@]1(Cc2ccccc2)[C@H]2C(=O)N(C)C(=O)[C@H]2[C@H]2CN=C(SCc3ccc(C)cc3)N21		inactive: 11.4%
O=C(CSc1nnnn1C1CCCC1)Nc1ccc2c(c1)OCO2	inconclusive [inhibitor, partial curve, poor fit]	
O=c1c2ccccc2nnn1COc1cccc2ccccc12	inconclusive [inhibitor, single point]	
O=C(CCCSc1nc2ccccc2[nH]1)Nc1nnc(C2CC2)s1		inactive: 2.68%
C=C(C)c1cccc(C(C)(C)NC(=O)N(Cc2ccccc2)Cc2ccco2)c1	inconclusive [inhibitor, full curve, poor fit]	
CC1Nc2ncnc(N3CCc4ccccc4C3)c2N(Cc2ccccc2)C1=O (centres undefined)	inconclusive [inhibitor, single point]	
Cc1ccccc1-n1nc(C)c2cc(C(=O)N3CCN(S(=O)(=O)c4ccc(Cl)cc4)CC3)sc21	inconclusive [inhibitor, partial curve, poor fit]	
Cc1ccccc1/C=C1\Oc2ccccc2C1=O	inconclusive [inhibitor, single point]	
COC(=O)C(Cc1c[nH]c2ccccc12)NC(=O)COc1ccc(Cl)cc1Cl (centres undefined)	inconclusive [inhibitor, single point]	
c1ccc2c(c1)ncn2CCCCOc1ccc2c(c1)CCC2	inconclusive [inhibitor, single point]	
COc1cc(-c2cc(C(=O)Nc3ccncc3)c3ccccc3n2)cc(OC)c1OC	inconclusive [inhibitor, single point]	
CN(CCO)c1c2c(nc3cc(-c4cccc(F)c4)nn13)CCCC2	inconclusive [inhibitor, single point]	
Cc1ccc(C(C)C)c(OCC(=O)Nc2cccc(NC(=O)c3ccco3)c2)c1	inconclusive [inhibitor, partial curve, poor fit]	
CC(=O)Nc1ccc(S(=O)(=O)NCCC(=O)N2CCC(Cc3ccccc3)CC2)cc1	inconclusive [inhibitor, single point]	
